# From the supplement of paper PMC11417369
# The list shows a part of the results.
# System: PF3D7_0420300 AP2 domain 1 (GST-tagged)
# Assay: gcPBM binding intensity (ln(normalized median fluorescence intensity)); higher = stronger DNA binding
# How it was run: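 GST-fused DNA-binding domains of P. falciparum, expressed in E. coli, were applied at about 25 μg on average for 1 h to an Agilent 4 × 180k array of primer-extended double-stranded 36-bp intergenic genomic probes and negative controls. Binding intensity is the highest Masliner-normalised natural-log median intensity across replicate spots of either probe orientation, measured with Alexa488 anti-GST antibody and a 488 nm scan.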
row,Sequence,gcPBM binding intensity (ln)
1,TTTACAATATAAAATACACACACACTAACATATATT [CACACA_site9231],9.89
2,TATATAAATGTTATCACACACTCACGTTTGACAAAA [CACACA_site6468],9.33
3,ATACAATAAAATAAGTTTGAATAAAATTAAATATAT [CACACA_negctrl_site877],9.27
4,TCCTTTTTTAAAAGTTGTACATTATTGTTATTTGTT [XGTACX_site4686],9.38
5,TTCCTCTTAATATGTGCACACTAAATTATAACCTAA [CACACA_site5751],9.27
6,GAAGGAAATAATAGTAGTACAAATGGTAAGAAATAT [XGTACX_site5845],9.7
7,GAGAAAGATATATACACACACATAAATATGTACATA [CACACA_site6975],9.88
8,TATATAGGTAAAAAATGTACTTATATTGAATATATT [XGTACX_site4414],9.19
9,TTTCCCAAGCTTATTACACACAAGTAGAATAAGCTT [CACACA_site1561],9.06
10,TTTACAATATTAAAATGTACATATAAAATAAATAAA [XGTACX_site8367],9.15
11,AATTTGTTAATATTTTGTACACATAATATAAAAACA [XGTACX_site2224],9.2
12,GATATCAAATATAAATGTACAAATTATATATACATA [XGTACX_site3228],9.25
13,TTCTTATTTATTTTCTTCTCCTTCCTCAAATTTTTT [GTGCAC_negctrl_site592],9.37
14,TTCATATATTTTAAAGCATGCATTCATCTTATAGTT [TGCATGCA_site800],9.19
15,TTTACGCTATAGGAGAGTACTTATAAAATCCTGTGT [XGTACX_site2364],9.24
16,TATTTTTCCATTGGGGGTACATGTGTTATATTTATT [XGTACX_site5914],10.1
17,TACAAAATATATATGACACACACAAAAAAAGTATAT [CACACA_site8455],9.9
18,AGACGAAAATAATAAAGTACTAAAAAAAAAAAAAAA [XGTACX_site927],8.78
19,ATATATATGCATATATGTACTTAAAATATAAAGGCA [XGTACX_site3256],9.04
20,ATTTTTTCTGTCTTAATTGGACCCACTGCAAATGGG [CACACA_negctrl_site1158],8.87
21,ATAATACAAAAAAAAAAAAAAAATAAAATAATAAAA [GTGCAC_negctrl_site722],9.33
22,AAGTAATACAACACGCACATATATATATATATATAT [GTGCAC_negctrl_site89],9.47

row,Sequence,gcPBM binding intensity (ln)
1,TACCTAAATAAATGGACACACACATATATATATATA [CACACA_site8407],9.51
2,TTATAGCCTGTGAAGAGTACATTTTTATTTTTTATT [XGTACX_site4105],9.31
3,TATTTTTAAATATAAAGTACTTATATTAACTACGAA [XGTACX_site1524],8.83
4,TTATACTGTTTCAGAAAAATAAAGAATGAAAGTATT [XGTACX_negctrl_site230],9.23
5,TTTTTATATTCCCCCAGTACATATATAATAGTAGTA [XGTACX_site7927],9.44
6,TGCAACAAAATAAACACACACACACCCCCACAAAAA [CACACA_site3388],10.3
7,AATAAAAAAATAAAATGTACATACAAATAAATAAAT [XGTACX_site5153],9.63
8,TATTTTAATGAAGCATTTAAGGGAAAAAAAAAAAAA [TGCATGCA_negctrl_site606],8.85
9,TTGTATACATAAAATGGTACAGAATATATAATTCTA [XGTACX_site7236],9.11
10,ATAAGATGATGGAACTGTAATATATATATATATATA [CACACA_negctrl_site839],9.19
11,TTTAAGAGTTGCACACGTACAAAAAAAAAAAAAAAA [XGTACX_site7406],8.86
12,GTATACCAACATATTATACACACCTTTATATTTTTT [CACACA_site2153],9.6
13,TTAATTAAAATTTATACATGCATAAAAGAAATACAC [TGCATGCA_site537],9.45
14,ATTACATGTTACTTAACACACATCTGGTGAAATAAT [CACACA_site171],9.46
15,ATTTTTTTCTTTTCTTTTTTCTTTTTTTTTTTTGGT [CACACA_negctrl_site1146],9.56
16,GTAATGAAACATTGCACACATATAATAATATAATAT [CACACA_site1422],9.59
17,TATATTACTTAAAATACACACCATGGAAAAGTTTTA [CACACA_site5443],9.38
18,TTCTGAACAAAATTATATATTTATTTTTATTTTCAT [CACACA_negctrl_site422],9.18
19,ATTATTTTTCTATGTGTGCACGTGTGGAATGTGTCT [GTGCAC_site9507],9.63
20,TTTTTATTTTTTTTATGTACACAAATGATATACATA [XGTACX_site5910],9.23
21,AGGATACACGGACACACACACATATAGATTTATATA [CACACA_site6552],9.93
22,TTTCTTTTTTTTTTTTTTTCTGGCTTTTTCTCTTTT [TGCATGCA_negctrl_site599],9.26

row,Sequence,gcPBM binding intensity (ln)
1,TCTGTAGTTTTTTACAGTACTTTTAGGTAATACATA [XGTACX_site7417],9.11
2,AAAACACCCAAACACACACACACATATATATATATA [CACACA_site9119],10.1
3,TTCTTGTATTTTCATAGTACATATAATGTCGTGTTA [XGTACX_site7714],9.42
4,AGAAAAAAAATATACACACATACGATCATACATATG [CACACA_site2171],9.71
5,ACCTCTTTGAAATATACACACTAAACATATCAACTT [CACACA_site5372],9.53
6,TACATAGAGTTTGTTTGTACTCATATGCGTAAATTC [XGTACX_site4810],9.06
7,CATTATGTCATAAATGCACACATATACATTGTTTTG [CACACA_site8118],9.49
8,AATAAATTATTTATTGCATGTAATATGAATATTTTT [TGCATGCA_site798],8.99
9,ATATATTTTATTCCTATATATATATATATATATATA [GTGCAC_negctrl_site556],9.27
10,TAATGTATGAAATAAACACACAAGTAAGTACATAAA [CACACA_site2451],9.62
11,ATACAACATATATATACACACATATAATAATAATAA [CACACA_site3367],9.79
12,AAACCAATAAAAAACTGTACAAAAATTATATGAGAT [XGTACX_site1269],9.65
13,TAATATAAAGGAAAAGAAAAGAAAAGAATATACAAT [CACACA_negctrl_site1369],9.66
14,GAATAAAAAATATATGTGCACATATAAACTTAAAAT [GTGCAC_site9554],9.46
15,AAATAACACATATATACACACATATAAATATAATAT [CACACA_site2692],9.94
16,AAAAAAAAAAAAAAAATACACACGTGAATGTATTGT [CACACA_site1320],9.55
17,ATAGGACCTATGTGCCCATGGGTACATTAAAAAAAA [CACACA_negctrl_site1465],8.86
18,AAAAAACTTATAATCACACATATGATTAAATATTAA [CACACA_site4956],9.22
19,AATTATTTTTTGTATGAACACACAACTTAATTATGA [CACACA_site8774],9.36
20,TTGAATGTAGTTAAATGTACATGTAATATATAAAAA [XGTACX_site1250],9.13
21,TTTGTTTTAAATCGAAGTACACATAATTATATTTTA [XGTACX_site1541],9.08
22,ATTTTTTTTTTTATTTTCTTTGAGATTATCTTAATT [CACACA_negctrl_site1209],9.29

row,Sequence,gcPBM binding intensity (ln)
1,TTAATTTGTTCTTACACACACATATATATATATTTA [CACACA_site1185],9.89
2,ATATTTTAAATGTTATGTACACATTTGTTGTTTACA [XGTACX_site7353],9.36
3,AATATTATTATTATTACACACACAATTATATTTACC [CACACA_site8061],9.93
4,TATATATATACATAATGTACATTTTATAAATTTACA [XGTACX_site5283],9.07
5,ACTACCTATATTTAAGCATGCAAAAAATAAAAATAT [TGCATGCA_site238],9.23
6,ATAAATTGTTCTTTTTGTGTAAACAGAATATTAAAA [CACACA_negctrl_site1022],8.97
7,ATATATATAATATAGGTGCACTACTTATTTAAAAAA,9.09
8,TAAAAATGTAGACACACACACATATATATATTTAAT [CACACA_site1528],9.9
9,AAATAATTAGCTATTTGTACATATATACATATTTAT [XGTACX_site4652],9.36
10,TTAATAACAAAATAAACACACATATATAAATCCACA [CACACA_site1590],9.92
11,TGTGTTAAATGTAATAGTGAATAAATAATTTTAACA [TGCATGCA_negctrl_site161],9.22
12,AAAATGAATATAATGACGCACACTTAAAATTGTTAA [CACACA_site2509],9.29
13,TTTTTTAGAAAAAGTTGTACTTTTTTTTTTTTTTTT [XGTACX_site535],8.72
14,TTTTTACGTAAACAAAATAATTATATAATATTATTT [CACACA_negctrl_site1769],9.05
15,CGTAAATTTTTTAAAAGTACAAAAAGATACGAGAAA [XGTACX_site8722],9.16
16,TAAACAAATAAATAAACACACAATATATGTATATAT [CACACA_site3803],9.59
17,ATATTTATATTTGTATGTACTTAAGTTTGTATGTAT [XGTACX_site3608],9.44
18,ATATATTAGGGCAAATTTTCTGACATTACATCAGTC [CACACA_negctrl_site1166],9.11
19,TATTTTTCTTTTTTCTGTACTCACACAAATAGAAGG [XGTACX_site7329],9
20,AAAATAAAAACAAAATCACACATTCCAGTTTTTTTT [CACACA_site5356],9.37
21,TTTTAAAATATCAACACACTCATTATTTTCTATATT [CACACA_site4740],9.3
